{"source": "PubChem BioAssay AID2147", "about": "(National Center for Advancing Translational Sciences (NCATS), 2009)", "note": "The whole screen tested about 230,000 compounds, of which about 3,600 (1.6%) were called active. Inconclusive means that the source gave no clear call. Such entries were picked first, then a sample of the others. Calls come from the whole dose curve; as a rule, active = well fitted inhibition curve with a large enough effect (not every such curve was filed as active); inconclusive = small, poorly fitted or top-dose-only effect, or another doubt; inactive = no such curve, though single readings can be large or run the other way. A potency beside an inconclusive call is a rough fit, not a confirmed value. The source holds several records for some structures; these can differ, active in one and inactive in another. Note: nearly all actives have a fitted effect of over 50% in size. Potency is the fitted concentration of half-maximal effect; tags give direction and shape of the fitted curve.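 Throughout, for activity change, negative = inhibition: 0% = wells with enzyme and -100% = buffer wells without enzyme.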", "data": [{"molecular_target": "Lysine-specific demethylase 4E (Homo sapiens) (UniProt B2RXH2)", "sequence (B2RXH2 whole entry, looked up, the tested form may be a part)": "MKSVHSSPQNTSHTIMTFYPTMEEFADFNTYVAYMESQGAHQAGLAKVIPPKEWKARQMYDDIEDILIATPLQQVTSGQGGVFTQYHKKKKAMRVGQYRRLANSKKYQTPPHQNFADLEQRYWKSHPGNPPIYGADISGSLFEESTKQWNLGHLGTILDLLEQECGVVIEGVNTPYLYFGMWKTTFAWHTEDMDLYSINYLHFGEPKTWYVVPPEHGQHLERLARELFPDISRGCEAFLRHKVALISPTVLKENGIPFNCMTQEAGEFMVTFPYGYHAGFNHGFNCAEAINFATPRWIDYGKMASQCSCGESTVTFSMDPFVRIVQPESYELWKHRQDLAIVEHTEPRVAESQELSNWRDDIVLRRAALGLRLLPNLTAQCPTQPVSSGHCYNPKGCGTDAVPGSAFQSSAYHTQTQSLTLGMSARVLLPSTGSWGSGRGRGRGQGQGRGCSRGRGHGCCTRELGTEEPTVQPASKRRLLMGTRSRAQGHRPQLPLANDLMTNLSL", "assay": "qHTS Assay for Inhibitors of Human Jumonji Domain Containing 2E (JMJD2E)", "conditions": "JMJD2E catalytic domain, FDH-coupled NADH fluorescence (FDH is formaldehyde dehydrogenase); series mostly up to 57.1 µM; activity change, negative = inhibition: at the top concentration", "values": [{"smiles": "COc1cc(S(=O)(=O)N2CCN(C)CC2)c(OC)cc1Cl", "activity change, negative = inhibition": "inactive: 4.35%"}, {"smiles": "CC(C)COC(=O)/C(C#N)=C/c1c[nH]c2ccccc12", "activity change, negative = inhibition": "inactive: -9.52%"}, {"smiles": "CCN1C/C(=C\\c2cccc([N+](=O)[O-])c2)C(=O)/C(=C/c2cccc([N+](=O)[O-])c2)C1", "activity change, negative = inhibition": "inactive: -4.9%"}, {"smiles": "Cc1cc(NCCN2CCOCC2)n2c(nc3ccccc32)c1C#N", "Potency": "inconclusive: 7.94 µM [inhibitor, partial curve]"}, {"smiles": "Nc1nc2c(c(=O)[nH]1)C(c1ccccc1)C1=C(N2)c2ccccc2C1=O", "note": "(stereo not drawn)", "Potency": "inconclusive: 35.5 µM [inhibitor, partial curve]"}, {"smiles": "COc1ccc(C(C(=O)NC2CCCC2)N(C(=O)c2snc(-c3ccc(F)cc3)c2N)c2ccc(OC)cc2)cc1", "note": "(stereo not drawn)", "Potency": "inconclusive: 35.5 µM [inhibitor, single point]"}, {"smiles": "C/C(=N\\NC(=O)C1COc2ccccc2O1)c1ccccn1", "note": "(stereo not drawn)", "Potency": "inconclusive: 35.5 µM [inhibitor, single point]"}, {"smiles": "NC(=O)c1nn(-c2ccccc2)nc1NC(=O)Cn1nnc(-c2ccccc2)n1", "Potency": "inconclusive: 22.4 µM [inhibitor, partial curve]"}, {"smiles": "COc1cccc(NC(=O)CSc2nc3n[nH]c(C)c3c(=N)n2-c2cccc(OC)c2)c1", "Potency": "inconclusive: 39.8 µM [inhibitor, single point]"}, {"smiles": "CN1CCN(c2ccccc2NC(=O)c2ccc([N+](=O)[O-])cc2Cl)CC1", "activity change, negative = inhibition": "inactive: -1.24%"}, {"smiles": "COC(=O)Cc1[nH]nc2c1C(c1cccc(OC)c1OC)C(C#N)=C(N)O2", "note": "(stereo not drawn)", "Potency": "inconclusive: 39.8 µM [inhibitor, single point]"}, {"smiles": "Cc1ccc(-c2ccc(=O)n(CCC(=O)NCCN3CCCCC3C)n2)cc1", "note": "(stereo not drawn)", "Potency": "inconclusive: 35.5 µM [inhibitor, single point]"}, {"smiles": "COC(=O)c1cc(COc2ccc3c4c(c(=O)oc3c2)CCCC4)c(C)o1", "Potency": "inconclusive: 7.08 µM [inhibitor, single point]"}, {"smiles": "c1coc(-c2cc(C3CCNCC3)[nH]n2)c1", "activity change, negative = inhibition": "inactive: -5.17%"}, {"smiles": "CN(c1ccccc1)S(=O)(=O)c1cccc(NC(=O)CN2CCc3ccccc3C2)c1", "Potency": "inconclusive: 39.8 µM [inhibitor, single point]"}, {"smiles": "O=C(Nc1cccn(Cc2ccccc2Cl)c1=O)NC1CCCCC1", "Potency": "inconclusive: 31.6 µM [inhibitor, partial curve]"}, {"smiles": "CCCC(C)NC(=O)CSc1nnc2ccccn12", "note": "(stereo not drawn)", "Potency": "inconclusive: 28.2 µM [inhibitor, partial curve]"}, {"smiles": "CCCCCNC(=O)c1ccc2c(=O)n(CCOC)c(=O)[nH]c2c1", "Potency": "inconclusive: 25.1 µM [inhibitor, single point]"}, {"smiles": "CCn1cc(C(=O)NCC2CCCO2)c(=O)c2cc(F)c(N3CCN(C)CC3)cc21", "note": "(stereo not drawn)", "Potency": "inconclusive: 28.2 µM [inhibitor, partial curve]"}, {"smiles": "COc1ccc(/C=C/C(=O)NCCN2CCOCC2)cc1OC", "Potency": "inconclusive: 31.6 µM [inhibitor, partial curve]"}, {"smiles": "CC1=C(CC(=O)O)c2cc(F)ccc2/C1=C\\c1ccc(S(C)=O)cc1", "note": "(stereo not drawn)", "Potency": "active: 35.5 µM"}, {"smiles": "O=C(Cn1cnc([N+](=O)[O-])n1)NCc1ccccc1", "activity change, negative = inhibition": "inactive: -0.976%"}, {"smiles": "Cc1ccc(NS(=O)(=O)c2cccc([N+](=O)[O-])c2)nc1", "Potency": "inconclusive: 25.1 µM [inhibitor, single point]"}, {"smiles": "CCCCC/C=N/NC(=O)c1[nH]c2ccc([N+](=O)[O-])cc2c1C", "activity change, negative = inhibition": "inactive: -1.44%"}, {"smiles": "N#Cc1c(N2CCOCC2)nc(N2CCCCC2)c2c1CCN(C1CCCCC1)C2", "Potency": "inconclusive: 20 µM [inhibitor, partial curve]"}, {"smiles": "Cc1cc2c(c(=O)o1)C(CC(C)C)C(C#N)=C(N)O2", "note": "(stereo not drawn)", "Potency": "inconclusive: 5.01 µM [inhibitor, full curve]"}, {"smiles": "C/C(=N\\Nc1cc(C)nc(-c2ccccc2O)n1)c1ccccc1", "activity change, negative = inhibition": "inactive: 3.69%"}, {"smiles": "COc1ccc(OC)c(C2C(C#N)=C(N)Oc3cc(N)ccc32)c1", "note": "(stereo not drawn)", "Potency": "inconclusive: 39.8 µM [inhibitor, single point]"}, {"smiles": "COc1cccc(N=c2oc3ccccc3cc2-c2nc3ccccc3[nH]2)c1", "activity change, negative = inhibition": "inactive: -5.82%"}, {"smiles": "Oc1c(CN2CCOCC2)ccc2ccccc12", "Potency": "inconclusive: 31.6 µM [inhibitor, partial curve]"}, {"smiles": "CCOc1ccc(NCc2ccccc2OCc2cccc(F)c2)cc1", "Potency": "inconclusive: 20 µM [inhibitor, partial curve]"}, {"smiles": "Cc1cc(-n2ccnc2)n2c(nc3ccccc32)c1C#N", "Potency": "inconclusive: 31.6 µM [inhibitor, single point]"}, {"smiles": "Brc1ccc(-c2cn3cccnc3n2)cc1", "Potency": "inconclusive: 25.1 µM [inhibitor, partial curve]"}, {"smiles": "N#Cc1c(NC(=S)NC(=O)c2ccccc2)sc2c1CCN(CCc1ccccc1)C2", "Potency": "inconclusive: 31.6 µM [inhibitor, single point]"}, {"smiles": "Cc1cccc2cc(-c3ccccc3)c(-c3ccccc3)c[n+]12", "Potency": "inconclusive: 28.2 µM [inhibitor, single point]"}, {"smiles": "CCOC(=O)c1sc2nc(C(C)C)c3c(c2c1N)CCC3", "Potency": "inconclusive: 31.6 µM [inhibitor, partial curve]"}, {"smiles": "CCc1ccccc1NC(=O)c1cc2ncc(Br)cn2n1", "Potency": "inconclusive: 39.8 µM [inhibitor, single point]"}, {"smiles": "COc1c2ccoc2nc2c(OC)c(OCC(OC(C)=O)C(C)(C)O)ccc12", "note": "(stereo not drawn)", "Potency": "inconclusive: 31.6 µM [inhibitor, partial curve]"}, {"smiles": "CCOC(=O)c1c(C)nc2sc(C(=O)Nc3ccccc3)c(N)c2c1-c1ccc(OC)cc1", "Potency": "inconclusive: 31.6 µM [inhibitor, partial curve]"}, {"smiles": "O=C1CC(N2CCN(c3ccc(O)cc3)CC2)C(=O)N1Cc1cccs1", "note": "(stereo not drawn)", "Potency": "inconclusive: 39.8 µM [inhibitor, single point]"}, {"smiles": "COc1ccc(C(=O)N/N=C/c2cc3ccccc3[nH]c2=O)cc1", "Potency": "inconclusive: 22.4 µM [inhibitor, partial curve]"}, {"smiles": "CSc1nc2ncc3c(n2n1)CC1c2ccccc2CCN1C3=O", "note": "(stereo not drawn)", "Potency": "inconclusive: 28.2 µM [inhibitor, partial curve]"}, {"smiles": "O=C(CN1CCN(c2ccc(O)cc2)CC1)Nc1ccc(SC(F)F)cc1", "Potency": "inconclusive: 14.1 µM [inhibitor, partial curve]"}]}]}
